From DBAASP
≈ marks a conversion by molar mass, not a printed value.

Columns and labels:
Assay in all cases: ≥ marks a high value that may be exact or a test limit, other limits are often not marked
Bacillus subtilis = tested on: Bacillus subtilis
Enterococcus faecalis = tested on: Enterococcus faecalis
Escherichia coli O111:B4 = tested on: Escherichia coli O111:B4
[1] = tested on: Pseudomonas aeruginosa H103
[2] = tested on: Salmonella typhimurium C610
[3] = tested on: Staphylococcus aureus K147
[4] = tested on: Staphylococcus aureus SAP 0017
[5] = tested on: Staphylococcus epidermidis
Corynebacterium xerosis = tested on: Corynebacterium xerosis
[6] = tested on: Enterococcus faecalis ATCC 29212
Escherichia coli UB1005 = tested on: Escherichia coli UB1005
Listeria monocytogenes = tested on: Listeria monocytogenes
[7] = tested on: Pseudomonas aeruginosa K799
[8] = tested on: Salmonella enterica subsp. enterica serovar Typhimurium ATCC 14028s
[9] = tested on: Staphylococcus aureus ATCC 25923
[10] = tested on: Staphylococcus epidermidis C621
Streptococcus mitis = tested on: Streptococcus mitis
[11] = tested on: Streptococcus pneumoniae ATCC 49619
[12] = tested on: Streptococcus pyogenes ATCC 19615
[13] = tested on: Bacillus amyloliquefaciens ATCC 23842
[14] = tested on: Bacillus cereus ATCC 14579
[15] = tested on: Bacillus licheniformis ATCC 14580
[16] = tested on: Bacillus subtilis ATCC 6051
[17] = tested on: Enterococcus faecalis 1F-1
[18] = tested on: Enterococcus faecium 5F-10
[19] = tested on: Escherichia coli ATCC 25922
[20] = tested on: Proteus mirabilis ATCC 35659
[21] = tested on: Pseudomonas aeruginosa PAO1
[22] = tested on: Salmonella enterica ATCC H9812
[23] = tested on: Staphylococcus aureus ATCC 29213
[24] = tested on: Escherichia coli KpC+001812446
[25] = tested on: Escherichia coli KpC+002101123
[26] = tested on: Klebsiella pneumoniae ATCC 13883
[27] = tested on: Klebsiella pneumoniae KpC+001825971
[28] = tested on: Pseudomonas aeruginosa ATCC 27853
Staphylococcus aureus MR = tested on: Staphylococcus aureus MR

CC[C@H](C)[C@H](NC(=O)[C@H](C)NC(=O)[C@@H]1CCCN1C(=O)CNC(=O)[C@H](C)NC(=O)[C@@H](NC(=O)[C@H](CCCCN)NC(=O)[C@H](CC(C)C)NC(=O)CNC(=O)[C@H](CCC(N)=O)NC(=O)[C@H](CC(C)C)NC(=O)[C@H](C)NC(=O)[C@H](CCCN=C(N)N)NC(=O)[C@H](CCCN=C(N)N)NC(=O)[C@H](Cc1c[nH]c2ccccc12)NC(=O)[C@H](Cc1c[nH]c2ccccc12)NC(=O)[C@H](CCCCN)NC(=O)[C@@H](N)CCCCN)[C@@H](C)O)C(=O)N[C@@H](CCC(N)=O)C(=O)N[C@@H](CO)C(=O)N[C@H](C(=O)N[C@@H](CC(C)C)C(=O)N[C@@H](CC(N)=O)C(=O)N[C@@H](CCCCN)C(=O)O)C(C)C [KKWWRRALQGLKTAGPAIQSVLNK]
MIC (Bacillus subtilis): ≥ 46.5 µM
MIC (Enterococcus faecalis): ≥ 46.5 µM
MIC (Escherichia coli O111:B4): 11.6 µM (≈ 32 µg/mL)
MIC [1]: ≥ 46.5 µM
MIC [2]: 5.82 µM (≈ 16 µg/mL)
MIC [3]: ≥ 46.5 µM
MIC [4]: ≥ 46.5 µM
MIC [5]: ≥ 46.5 µM

CC[C@H](C)[C@H](NC(=O)[C@H](CCCN=C(N)N)NC(=O)[C@H](CS)NC(=O)[C@H](CC(C)C)NC(=O)[C@H](CCCN=C(N)N)NC(=O)[C@@H](N)CCCN=C(N)N)C(=O)N[C@H](C(=O)N[C@@H](Cc1c[nH]c2ccccc12)C(=O)N[C@H](C(=O)N[C@H](C(=O)N[C@@H](CCCN=C(N)N)C(=O)N[C@H](C(=O)N[C@@H](CS)C(=O)N[C@@H](CCCN=C(N)N)C(=O)N[C@@H](CCCN=C(N)N)C(=O)O)C(C)C)[C@@H](C)CC)C(C)C)C(C)C [RRLCRIVWVIRVCRR]
MIC (Corynebacterium xerosis): 1.01 µM (≈ 2 µg/mL)
MIC [6]: > 32.3 µM
MIC (Escherichia coli UB1005): ≥ 32.3 µM
MIC (Listeria monocytogenes): 2.02 µM (≈ 4 µg/mL)
MIC [7]: ≥ 32.3 µM
MIC [8]: ≥ 32.3 µM
MIC [9]: > 32.3 µM
MIC [10]: 16.1 µM (≈ 32 µg/mL)
MIC (Streptococcus mitis): 1.01 µM (≈ 2 µg/mL)
MIC [11]: ≥ 32.3 µM
MIC [12]: 16.1 µM (≈ 32 µg/mL)

CC(C)C[C@H](NC(=O)[C@H](CC(C)C)NC(=O)[C@H](CCC(=O)O)NC(=O)[C@H](CC(=O)O)NC(=O)[C@@H](NC(=O)[C@H](CCCN=C(N)N)NC(=O)[C@@H](N)CO)C(C)C)C(=O)O [SRVDELL]
MIC [13]: ≥ 154 µM
MIC [14]: ≥ 154 µM
MIC [15]: ≥ 154 µM
MIC [16]: ≥ 154 µM
MIC [17]: ≥ 154 µM
MIC [18]: ≥ 154 µM
MIC [19]: > 154 µM
MIC [20]: ≥ 154 µM
MIC [21]: > 154 µM
MIC [22]: ≥ 154 µM
MIC [23]: > 154 µM

CC[C@H](C)[C@H](NC(=O)[C@@H](N)C(C)C)C(=O)N[C@@H](Cc1cnc[nH]1)C(=O)NCC(=O)N[C@@H](CC(C)C)C(=O)N[C@@H](Cc1ccccc1)C(=O)N[C@@H](CC(=O)O)C(=O)N[C@H](C(=O)N[C@H](C(=O)N[C@@H](CCCCN)C(=O)N[C@@H](CCCCN)C(=O)N[C@H](C(=O)N[C@@H](C)C(=O)N[C@@H](CO)C(=O)N[C@H](C(=O)N[C@H](C(=O)NCC(=O)NCC(=O)N[C@@H](CC(C)C)C(N)=O)[C@@H](C)CC)C(C)C)C(C)C)[C@@H](C)CC)C(C)C [VIHGLFDVIKKVASVIGGL]
MIC [19]: > 33 µM
MIC [24]: ≥ 33 µM
MIC [25]: 16 µM (≈ 31.4 µg/mL)
MIC [26]: ≥ 33 µM
MIC [27]: ≥ 33 µM
MIC [28]: > 33 µM
MIC [9]: 4 µM (≈ 7.86 µg/mL)
MIC (Staphylococcus aureus MR): 16 µM (≈ 31.4 µg/mL)
